# According to PubChem BioAssay AID445 (National Center for Advancing Translational Sciences (NCATS), 2006):
# Screen size: about 110,000 compounds; about 40 (0.04%) were called active. This list was built around the results that the source calls inconclusive (neither active nor inactive); the mix of calls is not that of the screen. The call rests on the fitted dose curve; in most records, active means well fitted curve in the direction sought with a large enough effect in the signal ratio (not every such curve was filed as active); inconclusive means small, poorly fitted or top-dose-only effect, or a change in a side signal; inactive means flat fitted curve, though single readings scatter; the % refers to the signal ratio. Potencies of inconclusive entries are doubtful fits and often do not repeat.
# Test: IkB Signaling;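 on IkBa stabilization activation: 0% = basal untreated cells and 100% = reference inhibitor full response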
# Details: ABC-DLBCL IkBa-CBG/CBR dual luciferase ratio (green luciferase fused to IkBa over red control in OCI-Ly3 lymphoma cells), 4 h; IkBa stabilization activation: at 57.1 µM (top of the series), scaled: untreated 0%, proteasome inhibitor 100% unless noted
# Summary of the method: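 In this assay, an IκBα–CBG68 fusion accumulates when IKK-driven degradation is blocked; native CBR normalizes for cell number. OCI-Ly3 cells were treated 4 h with compound and doxycycline, then green and red light read after Chroma-Glo addition.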
# Potency means the concentration at half of the fitted maximal effect.
SMILES,IkBa stabilization activation,Potency
COc1ccc(C(=O)Nc2ccc(-n3nncc3-c3ccccc3)cc2)cc1OC,inconclusive: 0.555% [signal inhibitor],
COC(=O)[C@H](Cc1ccccc1)NC(=O)NCCc1ccc(S(N)(=O)=O)cc1,inactive,
COc1ccc(NC(=O)N2CC[C@@]3(CCCN(C(=O)c4ccc(OC)cc4)C3)C2)cc1,"inactive: -1.13% [at 11.4 µM, scaled: untreated 0%, proteasome inhibitor 100%]",
Cc1ccc(-n2nc(CO)c(C(=O)NCc3cccnc3)n2)cc1,inconclusive: 1.58% [signal inhibitor],
CCc1ccc(S(=O)(=O)c2cn(Cc3ccccc3)c3cc(F)c(F)cc3c2=O)cc1,inconclusive: 1.38% [signal inhibitor],
CCc1ccccc1Nc1nc2ccccc2c2nncn12,inconclusive: 5.47% [signal inhibitor],
O=C(NCc1ccco1)C12CC3CC(C1)CC(C(=O)NCc1ccco1)(C3)C2,inactive,
COc1cc(NC(=O)Nc2cccc(-c3noc(C)n3)c2)cc(OC)c1OC,inconclusive: 4.78% [signal inhibitor],
Cc1cc(N2C(=O)CC(N3CCN(c4ccc(C(=O)c5cccs5)cc4)CC3)C2=O)no1 (stereo not drawn),inconclusive: 9.33% [signal inhibitor],
COc1ccc(-n2c(=O)c(CCc3ccccc3)nc3cnc(N(C)C)nc32)cc1,"inactive: 2.98% [at 11.4 µM, scaled: untreated 0%, proteasome inhibitor 100%]",
Cc1ccc(Cl)cc1NC(=O)Cc1ccc(-n2c(C)nc3cccnc32)cc1,inconclusive: 0.705% [signal inhibitor],
COc1cc(C2c3c(oc4ccccc4c3=O)C(=O)N2c2ccccn2)cc(OC)c1OC (stereo not drawn),inactive,
CCCc1nn2c(=O)cc(COC(=O)c3ccccc3NC(=O)c3cccs3)nc2s1,inactive,
COc1ccc(N(Cc2cccs2)C(=O)c2ccc(OCC(C)C)cc2)cc1,inconclusive: 0.53% [signal inhibitor],
O=C(CSc1ncccc1-c1nc2ccccc2[nH]1)N1CCN(c2ccccc2F)CC1,,"inconclusive: 3.16 µM [signal inhibitor, partial curve]"
Cc1ccc(OCC(=O)Nc2ccc(Cl)c(-c3nc4ncccc4o3)c2)c(C)c1,inconclusive: 0.48% [signal inhibitor],
COCCCNC(=O)CSc1nc2c(sc3ccccc32)c(=O)n1CCc1ccccc1,inactive,

SMILES,IkBa stabilization activation,Potency
CSc1nc(C)cc(Nc2ccc(O)c(CN3CCCCC3)c2)n1,"inactive: -0.526% [at 11.4 µM, scaled: untreated 0%, proteasome inhibitor 100%]",
CCOC(=O)c1cccc(NC(=O)c2cc3c(-c4cccc(OC)c4)nn(C)c3s2)c1,inconclusive: -3.31% [signal inhibitor],
Cc1ccc(S(=O)(=O)c2nc(S(C)(=O)=O)sc2N(C)Cc2ccccc2)cc1,inconclusive: 0.945% [signal inhibitor],
COc1cccc(Nc2cc(C)nc3nc(-c4ccc(Cl)cc4)nn23)c1,inactive,
COc1ccc(NCc2cc3cc4c(cc3n(CC(=O)Nc3cc(C)cc(C)c3)c2=O)OCO4)cc1,inconclusive: 1.86% [signal inhibitor],
CCOC(=O)COc1ccccc1C1C(C(=O)OC)=C(C)NC2=C1C(=O)c1ccccc12 (stereo not drawn),inconclusive: -1.03% [signal inhibitor],
COc1cc(NC(=O)CCc2c(C)nc3cc(-c4ccccc4)nn3c2C)cc(OC)c1OC,,inconclusive: 25.1 µM [signal inhibitor]
COc1ccccc1N(CC(=O)Nc1ccc2c(c1)OCO2)S(=O)(=O)c1ccccc1,inconclusive: 1.79% [signal inhibitor],
Cc1ccc2c(c1)c(=O)c(C(=O)c1ccc3c(c1)OCO3)cn2Cc1ccc(Cl)cc1,inconclusive: 3.68% [signal inhibitor],
CSc1ccc(/C=C/c2nc3ccccc3n2S(=O)(=O)c2cccc(Cl)c2)cc1,,"inconclusive: 6.31 µM [signal inhibitor, partial curve]"
CCC(CC)C(=O)Nc1nnc(SCc2cc(=O)n3cccc(C)c3n2)s1,inconclusive: -0.0965% [signal inhibitor],
Cc1oc2ncnc(N3CCCCC3)c2c1C(=O)N1CCN(c2cccc(Cl)c2)CC1,inconclusive: 0.574% [signal inhibitor],
CCCN1C(=O)C2(c3ccccc31)c1c(oc3ccc(F)cc3c1=O)C(=O)N2CCCOC(C)C (stereo not drawn),inconclusive: -1.31% [signal inhibitor],
CC(C)(C)n1nnnc1C(c1cccs1)N1CCCc2ccccc21 (stereo not drawn),inconclusive: 3.01% [signal inhibitor],
Cc1ccc(S(=O)(=O)Oc2cc(S(=O)(=O)O)cc3cc(S(=O)(=O)O)cc(N)c23)cc1,"inactive: 0.505% [at 11.4 µM, scaled: untreated 0%, proteasome inhibitor 100%]",
NC(=O)c1c(NC(=O)CSc2nnc(-c3ccco3)n2-c2ccccc2)sc2c1CCC2,inconclusive: 6.95% [signal inhibitor],
